Data published in the supplement of paper PMC12217912.
Some of the results follow. The full chains were built here from the parent and the listed change. Inactive controls read about 0.05.

B1: TEV protease; numbered along this chain (parent)
chain: MGESLFKGPRDYNPISSSICHLTNESDGHTTSLYGIGFGPFIITNKHLFRRNNGTLVVQSLHGVFKVKDTTTLQQHLVDGRDMIIIRMPKDFPPFPQKLKFREPQREERICLVTTNFQTKSMSSMVSDTSCTFPSGDGIFWKHWIQTKDGQCGSPLVSTRDGFIVGIHSASNFTNTNNYFTSVPKNFMELLTNQEAQQWVSGWRLNADSVLWGGHKVFMVKPEEPFQPVKEATQL

Variants of: B1
Test: raw area under fraction-flipped curve 0-4 h after induction (AUC4h, not background-subtracted), DNA-recorder readout of cleavage of the substrate (dimensionless); higher = more cleavage of the substrate by the protease variant
Conditions: temperature: 34 °C; time window: 0-4 h after rhamnose induction
Procedure: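 In vivo DNA recorder in E. coli TOP10(DE3) ΔrhaA at 34 °C. Each TEVp single-site mutant (parent TEVp 0) is paired with a single-site variant of the 7-mer TEVs (canonical ENLYFQ|S). The substrate sits between flexible linkers in a Bxb1-sfGFP-TEVs-SsrA fusion, so cleavage stabilises Bxb1 and speeds flipping of a recombination array, read by NGS. The value is the raw area under the fraction-flipped curve over 0-4 h after rhamnose induction (AUC4h), with ≥20 reads per time point. It is not background-subtracted; inactive controls average about 0.047.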
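Note: Bxb1 expression induced with 0.2% (w/v) L-rhamnose at OD600 near 0.5, cultures sampled hourly, flipped fraction per protease–substrate barcode pair counted by paired-end Illumina sequencing.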

Row | Variant | area with substrate ENLYFCS | area with substrate ENLYFDS | area with substrate ENLYFES | area with substrate ENLYFFS | area with substrate ENLYFHS | area with substrate ENLYFIS | area with substrate ENLYFKS | area with substrate ENLYFMS | area with substrate ENLYFNS | area with substrate ENLYFPS | area with substrate ENLYFRS | area with substrate ENLYFSS | area with substrate ENLYFTS | area with substrate ENLYFVS | area with substrate ENLYFWS | area with substrate ENLYFYS | area with substrate ENLYFGS | area with substrate ENLYFLS
1 | R10F | 0.0717 | 0.0483 | 0.0612 | 0.0608 | 0.0559 | 0.056 | 0.0575 | 0.0546 | 0.079 | 0.068 | 0.0499 | 0.0583 | 0.0705 | 0.0616 | 0.0595 | 0.0641 |  | 
2 | T119Y | 0.0554 | 0.0589 | 0.0528 | 0.0706 | 0.0717 | 0.0586 | 0.064 | 0.0548 | 0.0509 |  | 0.0764 |  | 0.0634 | 0.0564 |  |  | 0.0624 | 0.0822
3 | L77Q | 0.0575 |  | 0.0597 | 0.0466 |  | 0.0533 | 0.0621 | 0.0661 | 0.0455 | 0.0607 | 0.0799 | 0.0644 |  |  | 0.0597 |  |  | 0.0551
4 | T71N | 0.0756 | 0.0553 | 0.0903 |  | 0.0699 | 0.0333 |  | 0.0622 |  | 0.0656 | 0.0607 |  | 0.0503 | 0.0402 | 0.0495 | 0.0423 | 0.0664 | 
5 | K230Q | 0.0539 |  | 0.0693 | 0.064 |  | 0.0592 | 0.0781 | 0.074 | 0.0696 |  | 0.0627 | 0.0522 | 0.0639 | 0.0799 | 0.0507 | 0.0456 |  | 
6 | D27M | 0.0472 | 0.0664 | 0.0721 | 0.0646 |  |  | 0.0662 | 0.0558 |  | 0.0592 | 0.0525 | 0.063 | 0.0531 | 0.0529 |  | 0.0375 |  | 
7 | T71R | 0.0697 |  | 0.0661 | 0.0389 |  | 0.0569 | 0.0417 |  |  | 0.0614 |  | 0.0804 | 0.0588 | 0.0339 |  | 0.0632 |  | 
8 | P134N | 0.061 | 0.0864 | 0.0589 | 0.0587 | 0.0579 | 0.0497 | 0.0455 | 0.0555 | 0.0449 | 0.0547 |  | 0.0521 | 0.0709 | 0.0622 | 0.04 |  |  | 0.0636
9 | F226T | 0.0421 |  |  |  | 0.06 | 0.046 | 0.0628 | 0.0712 | 0.0645 |  |  |  | 0.0444 |  | 0.0536 |  |  | 
10 | P228K | 0.0676 |  | 0.0731 |  |  | 0.0557 | 0.0509 | 0.0815 |  |  |  | 0.0506 | 0.0671 |  | 0.0515 |  |  | 0.0632
11 | T55N | 0.0746 |  | 0.0625 | 0.0661 |  | 0.0639 | 0.0658 | 0.0655 | 0.0789 | 0.0658 |  | 0.0631 | 0.0673 |  | 0.0674 |  |  | 0.0567
12 | H76V |  | 0.0513 | 0.036 |  |  | 0.055 |  | 0.0527 |  | 0.0527 |  |  |  |  | 0.0561 |  |  | 
13 | Q75V |  | 0.0562 | 0.0594 |  |  | 0.0494 |  | 0.0624 |  | 0.0483 |  |  | 0.071 |  | 0.0744 |  |  | 
14 | K90N |  | 0.0571 | 0.0837 |  | 0.0834 | 0.0596 | 0.0719 | 0.0581 |  |  |  |  | 0.0633 | 0.0667 |  |  | 0.0674 | 0.0827
15 | K221G |  | 0.0372 | 0.0691 | 0.0547 | 0.0299 | 0.0531 | 0.0663 | 0.0608 |  | 0.0547 |  | 0.0608 | 0.0598 |  |  |  |  | 0.0603
16 | Y34A |  | 0.0544 |  | 0.0502 |  | 0.054 |  | 0.0689 |  | 0.0564 |  |  |  | 0.0549 | 0.0621 |  |  | 
17 | I86L |  | 0.0409 |  | 0.0576 |  | 0.069 |  | 0.0627 |  | 0.0649 |  | 0.0667 | 0.0593 |  | 0.0464 | 0.0267 |  | 
18 | N186G |  | 0.0838 |  |  | 0.0651 |  | 0.0676 | 0.0749 |  |  |  |  |  | 0.0462 |  |  |  | 

Row | Variant | area with substrate ENLYFCS | area with substrate ENLYFDS | area with substrate ENLYFES | area with substrate ENLYFFS | area with substrate ENLYFHS | area with substrate ENLYFIS | area with substrate ENLYFKS | area with substrate ENLYFMS | area with substrate ENLYFNS | area with substrate ENLYFPS | area with substrate ENLYFRS | area with substrate ENLYFSS | area with substrate ENLYFTS | area with substrate ENLYFVS | area with substrate ENLYFWS | area with substrate ENLYFYS | area with substrate ENLYFGS | area with substrate ENLYFLS
19 | L5V |  | 0.0532 | 0.0524 | 0.0753 |  | 0.0567 |  |  |  |  | 0.0508 | 0.063 |  | 0.0625 |  | 0.0647 |  | 
20 | D91N |  | 0.0645 |  | 0.0577 |  | 0.0669 |  | 0.0461 |  | 0.0569 |  |  | 0.0479 |  | 0.0753 |  | 0.064 | 
21 | S127W |  | 0.0699 |  | 0.0566 |  | 0.0514 |  | 0.0829 | 0.0837 | 0.0596 | 0.0909 |  | 0.0588 | 0.0634 | 0.0461 |  |  | 0.059
22 | V67N |  | 0.0364 |  | 0.0707 | 0.0796 | 0.0208 |  | 0.0485 |  |  | 0.0625 | 0.0578 | 0.0508 |  | 0.0493 | 0.0595 |  | 0.0585
23 | F95D |  | 0.0381 |  | 0.0657 |  |  |  | 0.0541 | 0.0572 | 0.0474 |  | 0.0507 |  | 0.0435 |  |  | 0.0405 | 
24 | A207Q |  | 0.0574 | 0.0626 | 0.0624 | 0.0555 | 0.0659 | 0.0439 | 0.0622 |  | 0.0657 |  | 0.0652 |  |  | 0.0534 |  |  | 0.0682
25 | E108F |  | 0.0213 |  |  |  | 0.0525 |  | 0.0466 | 0.0624 |  |  | 0.0557 |  |  |  | 0.0606 |  | 
26 | F95K |  | 0.0682 |  |  |  | 0.0438 |  |  |  | 0.0542 |  |  |  |  |  | 0.061 |  | 
27 | I84R |  | 0.0548 |  | 0.0628 |  | 0.056 | 0.0574 | 0.0797 | 0.0554 |  | 0.0703 |  | 0.0756 |  | 0.066 |  |  | 0.0533
28 | G153K |  | 0.0453 | 0.0505 |  |  | 0.0577 | 0.0544 | 0.0667 |  |  | 0.0344 |  | 0.0499 |  | 0.0647 | 0.04 |  | 0.0465
29 | L5N |  | 0.074 | 0.0844 | 0.05 |  | 0.0569 |  | 0.0766 |  | 0.0576 | 0.0844 |  |  |  |  | 0.0588 | 0.0424 | 
30 | D161M |  | 0.0526 | 0.0524 | 0.0636 |  | 0.0524 |  | 0.0582 | 0.0601 | 0.0631 |  |  | 0.0592 | 0.0588 | 0.0559 |  |  | 
31 | I19A |  | 0.0558 | 0.0584 | 0.0693 |  | 0.0517 | 0.0554 | 0.0629 | 0.0526 | 0.0566 |  |  | 0.0535 | 0.0571 |  |  |  | 
32 | R51P |  | 0.0548 | 0.0663 | 0.0696 | 0.055 | 0.0511 |  | 0.0608 | 0.0657 | 0.0589 | 0.0644 |  | 0.0592 |  |  |  |  | 0.0673
33 | K66N |  | 0.0654 | 0.062 |  | 0.0704 | 0.0626 |  |  |  | 0.0553 |  |  |  |  | 0.0411 | 0.0609 |  | 
34 | F65D |  | 0.0541 | 0.0603 | 0.0518 | 0.0574 | 0.0566 |  | 0.076 |  | 0.0589 |  |  | 0.0492 |  | 0.0289 |  |  | 
35 | T174W |  | 0.0721 | 0.062 | 0.0663 | 0.0594 | 0.0595 | 0.0532 | 0.068 | 0.0683 | 0.0538 | 0.0607 |  | 0.0484 | 0.0543 | 0.047 |  |  | 0.0568
